The record followed here is the GPR68 mutational scans of Howard et al. (2025).

B1: GPR68, Q15743 (parent)
chain: MGNITADNSSMSCTIDHTIHQTLAPVVYVTVLVVGFPANCLSLYFGYLQIKARNELGVYLCNLTVADLFYICSLPFWLQYVLQHDNWSHGDLSCQVCGILLYENIYISVGFLCCISVDRYLAVAHPFRFHQFRTLKAAVGVSVVIWAKELLTSIYFLMHEEVIEDENQHRVCFEHYPIQAWQRAINYYRFLVGFLFPICLLLASYQGILRAVRRSHGTQKSRKDQIQRLVLSTVVIFLACFLPYHVLLLVRSVWEASCDFAKGVFNAYHFSLLLTSFNCVADPVLYCFVSETTHRDLARLRGACLAFLTCSRTGRAREAYPLGAPEASGKSGAQGEEPELLTKLHPAFQTPNSPGSGGFPTGRLA

Data set [1] covers variants of B1. Briefly: cAMP reporter score (Enrich2 score, wild type = 0); higher = more signal; HEK293T, FACS bins.
The variants in data set [2] derive from B1. Put plainly: surface expression score (Enrich2 score, wild type = 0); higher = more signal; HEK293T, FACS bins.

Scores with a large standard error are left out. Not listed are two conditions whose scores span a narrow range. Read del as a deletion of the residues named and ins as an insertion between two positions. For some assays here: The data file names ogerin without a concentration.

For the variant Y28G, the cAMP reporter score is -1.16 in data set [1] (pH 5.5); -1.79 in data set [1] (pH 6); -2 in data set [1] (pH 6, modulator: ogerin). In addition, the surface expression score in data set [2] was -1.08.
As to Y28H, the cAMP reporter score in data set [1] (pH 5.5) was -1.43; in data set [1] (pH 6), -0.729; in data set [1] (pH 6, modulator: ogerin) it was -1.51; in data set [1] (pH 6.5, modulator: ogerin) it was -1.29. Besides, the surface expression score in data set [2] was -0.996.
On to Y28C, for which the cAMP reporter score in data set [1] (pH 5.5) was -1.61; in data set [1] (pH 6), -0.723; in data set [1] (pH 6, modulator: ogerin) it was -1.72; in data set [1] (pH 6.5, modulator: ogerin), -1.23. Besides, in data set [2], the surface expression score was -1.85.
With Y28K, the cAMP reporter score in data set [1] (pH 5.5) is -0.545; in data set [1] (pH 6), -1.13; in data set [1] (pH 6, modulator: ogerin) it was -1.09; in data set [1] (pH 6.5, modulator: ogerin), -0.625. Besides, the surface expression score in data set [2] was -1.79.
On to Y28D, for which the cAMP reporter score was -1.78 in data set [1] (pH 5.5); -1.16 in data set [1] (pH 6); -1.53 in data set [1] (pH 6, modulator: ogerin); -1.37 in data set [1] (pH 6.5, modulator: ogerin). For the same variant, the surface expression score in data set [2] was -1.44.
With Y28T, the cAMP reporter score in data set [1] (pH 5.5) was -2.56. Besides, the surface expression score in data set [2] is -1.17.
For the variant Y28A, the cAMP reporter score is -0.844 in data set [1] (pH 5.5); -0.575 in data set [1] (pH 6); -1.69 in data set [1] (pH 6, modulator: ogerin); -0.522 in data set [1] (pH 6.5, modulator: ogerin). The surface expression score in data set [2] came out at 0.37.
For Y28I the same measures were -1.1, -0.875, -1.05, -0.733 and 1.1.
As to Y28V, the cAMP reporter score is -1.44 in data set [1] (pH 5.5); 0.4 in data set [1] (pH 6); -1.92 in data set [1] (pH 6, modulator: ogerin); -0.044 in data set [1] (pH 6.5, modulator: ogerin). Moreover, in data set [2], the surface expression score is -0.602.
Y28E: the cAMP reporter score is -2.46 in data set [1] (pH 5.5); 0.06 in data set [1] (pH 6); -3.37 in data set [1] (pH 6, modulator: ogerin). In data set [2], the surface expression score was -3.11.
Take Y28M: the cAMP reporter score was -1.26 in data set [1] (pH 5.5); -0.444 in data set [1] (pH 6); -1.03 in data set [1] (pH 6, modulator: ogerin); -0.675 in data set [1] (pH 6.5, modulator: ogerin). For the same variant, in data set [2], the surface expression score was 0.788.
For Y28N the same measures were -0.809, -1.53, -0.721, -1.3 and -2.27.
In the same order, the values of G35del are -1.25, -0.936, -1.71, -0.955 and -2.59.
In the same order, the values of V31Q are -1.48, -0.779, -1.83, -0.967 and -1.89.
In the case of V31T, the cAMP reporter score in data set [1] (pH 5.5) is -0.914; in data set [1] (pH 6), -1.09; in data set [1] (pH 6, modulator: ogerin), -0.95; in data set [1] (pH 6.5, modulator: ogerin), -1. The surface expression score in data set [2] is -2.41.
In the same order, the values of V31E are -1.6, -0.823, -0.597, -0.781 and -2.33.
With V31P, the cAMP reporter score in data set [1] (pH 5.5) is -1.54; in data set [1] (pH 6, modulator: ogerin), -1.65; in data set [1] (pH 6.5, modulator: ogerin), -1.11. Also, the surface expression score in data set [2] was -1.81.
For the variant V31N, the cAMP reporter score in data set [1] (pH 5.5) was -1.11; in data set [1] (pH 6), -1.85; in data set [1] (pH 6, modulator: ogerin) it was -1.67.
Regarding V31M, the cAMP reporter score in data set [1] (pH 5.5) is -0.588; in data set [1] (pH 6), 0.184; in data set [1] (pH 6, modulator: ogerin), -0.291; in data set [1] (pH 6.5, modulator: ogerin), -0.252. Also, the surface expression score in data set [2] is -1.59.
Take V31S: the cAMP reporter score in data set [1] (pH 5.5) is -1.45; in data set [1] (pH 6), 0.095; in data set [1] (pH 6, modulator: ogerin) it was -1.74; in data set [1] (pH 6.5, modulator: ogerin), -1.19. Also, the surface expression score in data set [2] was -2.74.
V31K: the cAMP reporter score in data set [1] (pH 5.5) was -0.756; in data set [1] (pH 6) it was -1.07; in data set [1] (pH 6, modulator: ogerin) it was -1.39; in data set [1] (pH 6.5, modulator: ogerin), -0.826. The surface expression score in data set [2] is -1.92.
Turning to V31G, the cAMP reporter score in data set [1] (pH 5.5) is -0.968; in data set [1] (pH 6, modulator: ogerin) it was -2.82; in data set [1] (pH 6.5, modulator: ogerin), -2.15. Besides, in data set [2], the surface expression score is -2.62.
On to V31I, for which the cAMP reporter score in data set [1] (pH 5.5) was -1.14; in data set [1] (pH 6), -1.01; in data set [1] (pH 6, modulator: ogerin), -1.06; in data set [1] (pH 6.5, modulator: ogerin) it was -1.35. Moreover, in data set [2], the surface expression score was -0.333.
As for V31R, the cAMP reporter score is -1.52 in data set [1] (pH 5.5); -1.22 in data set [1] (pH 6); -1.49 in data set [1] (pH 6, modulator: ogerin); -1.27 in data set [1] (pH 6.5, modulator: ogerin). Also, the surface expression score in data set [2] is -2.6.
V31A: the cAMP reporter score in data set [1] (pH 5.5) was 0.266; in data set [1] (pH 6), -0.072; in data set [1] (pH 6, modulator: ogerin) it was -0.145; in data set [1] (pH 6.5, modulator: ogerin), 0.025. Moreover, the surface expression score in data set [2] was -1.49.
Turning to V31W, the cAMP reporter score is -2.34 in data set [1] (pH 5.5); -1.56 in data set [1] (pH 6); -1.58 in data set [1] (pH 6, modulator: ogerin); -1.24 in data set [1] (pH 6.5, modulator: ogerin). Besides, in data set [2], the surface expression score was -2.56.
For V31F, the cAMP reporter score in data set [1] (pH 5.5) was -1.99; in data set [1] (pH 6), -1; in data set [1] (pH 6, modulator: ogerin) it was -1.26; in data set [1] (pH 6.5, modulator: ogerin), -1.01. In data set [2], the surface expression score was -1.82.
With V31H, the cAMP reporter score in data set [1] (pH 5.5) was -0.813; in data set [1] (pH 6), -0.506; in data set [1] (pH 6.5, modulator: ogerin), -1.75. Moreover, the surface expression score in data set [2] is -0.991.
For the variant V31C, the cAMP reporter score is 0.75 in data set [1] (pH 5.5); -0.186 in data set [1] (pH 6); -0.257 in data set [1] (pH 6, modulator: ogerin); -0.116 in data set [1] (pH 6.5, modulator: ogerin).
Turning to V31D, the cAMP reporter score in data set [1] (pH 5.5) was -0.913; in data set [1] (pH 6), -1.42; in data set [1] (pH 6, modulator: ogerin), -1.88; in data set [1] (pH 6.5, modulator: ogerin), -1.05. In data set [2], the surface expression score was -2.07.
V31Y: the cAMP reporter score in data set [1] (pH 5.5) was -1.59; in data set [1] (pH 6), -0.819; in data set [1] (pH 6, modulator: ogerin), -2.39; in data set [1] (pH 6.5, modulator: ogerin) it was -1.85. In data set [2], the surface expression score was -2.16.
Consider V31L, for which the cAMP reporter score in data set [1] (pH 5.5) was -0.934; in data set [1] (pH 6), -0.629; in data set [1] (pH 6, modulator: ogerin), -1.16; in data set [1] (pH 6.5, modulator: ogerin), -0.992. In data set [2], the surface expression score was 1.49.
